{
  "source": "the antibiotic and cytotoxicity screens of Wong et al. (2023)",
  "key": {"HSkMC": {"test_system": "HSkMC", "test": "cytotoxicity call (relative viability < 0.9)", "settings": "10 µM"}, "HepG2": {"test_system": "HepG2", "test": "cytotoxicity call (relative viability < 0.9)", "settings": "10 µM"}, "S. aureus RN4220": {"test_system": "S. aureus RN4220", "test": "growth inhibition call (relative growth <= 0.2)", "settings": "50 µM"}},
  "note": "The list shows a part of the results.",
  "data": [
    {"smiles": "C[N+](C)(C)CCCCNC(=O)[C@@H]1C[C@@H]2C(=O)N[C@@H](Cc3ccccc3)C(=O)N2[C@@H]1c1cccc(OCCO)c1", "values": [
      {"measurement": "cytotoxicity call", "setting": "HSkMC", "result": "inactive"},
      {"measurement": "cytotoxicity call", "setting": "HepG2", "result": "inactive"},
      {"measurement": "growth inhibition call", "setting": "S. aureus RN4220", "result": "inactive"}
    ]},
    {"smiles": "O=C(C[C@H]1CC[C@H](NS(=O)(=O)c2ccc(F)cc2)[C@H](CO)O1)N1CCC(Cc2ccccc2)CC1", "values": [
      {"measurement": "cytotoxicity call", "setting": "HSkMC", "result": "inactive"},
      {"measurement": "cytotoxicity call", "setting": "HepG2", "result": "inactive"},
      {"measurement": "growth inhibition call", "setting": "S. aureus RN4220", "result": "inactive"}
    ]},
    {"smiles": "CCN(CC)CC#CCOC(=O)C(O)(c1ccccc1)C1CCCCC1.Cl", "note": "(stereo not given)", "values": [
      {"measurement": "cytotoxicity call", "setting": "HSkMC", "result": "inactive"},
      {"measurement": "cytotoxicity call", "setting": "HepG2", "result": "inactive"},
      {"measurement": "growth inhibition call", "setting": "S. aureus RN4220", "result": "inactive"}
    ]},
    {"smiles": "C[C@@H]1CN([C@@H](C)CO)C(=O)c2cc(NC(=O)CCN3CCOCC3)ccc2O[C@H]1CN(C)S(=O)(=O)c1ccc(Cl)cc1", "values": [
      {"measurement": "cytotoxicity call", "setting": "HSkMC", "result": "inactive"},
      {"measurement": "cytotoxicity call", "setting": "HepG2", "result": "inactive"},
      {"measurement": "growth inhibition call", "setting": "S. aureus RN4220", "result": "inactive"}
    ]},
    {"smiles": "Cc1noc(C)c1S(=O)(=O)Nc1cccc2c1O[C@@H](CN(C)CC1CC1)[C@@H](C)CN([C@H](C)CO)C2=O", "values": [
      {"measurement": "cytotoxicity call", "setting": "HSkMC", "result": "inactive"},
      {"measurement": "cytotoxicity call", "setting": "HepG2", "result": "inactive"},
      {"measurement": "growth inhibition call", "setting": "S. aureus RN4220", "result": "inactive"}
    ]},
    {"smiles": "COc1ccc(S(=O)(=O)N(C)C[C@@H]2Oc3ccc(NC(=O)CCCN(C)C)cc3CC(=O)N([C@@H](C)CO)C[C@@H]2C)cc1", "values": [
      {"measurement": "cytotoxicity call", "setting": "HSkMC", "result": "inactive"},
      {"measurement": "cytotoxicity call", "setting": "HepG2", "result": "inactive"},
      {"measurement": "growth inhibition call", "setting": "S. aureus RN4220", "result": "inactive"}
    ]},
    {"smiles": "CO[C@H]1CN(C)C(=O)c2cc(NC(=O)c3ccccc3)ccc2OC[C@@H](C)N(C(=O)CN(C)C)C[C@H]1C", "values": [
      {"measurement": "cytotoxicity call", "setting": "HSkMC", "result": "inactive"},
      {"measurement": "cytotoxicity call", "setting": "HepG2", "result": "inactive"},
      {"measurement": "growth inhibition call", "setting": "S. aureus RN4220", "result": "inactive"}
    ]},
    {"smiles": "Cc1ccc(S(=O)(=O)N(C)C[C@H]2Oc3ccc(NC(=O)C4CC4)cc3C(=O)N([C@@H](C)CO)C[C@@H]2C)cc1", "values": [
      {"measurement": "cytotoxicity call", "setting": "HSkMC", "result": "inactive"},
      {"measurement": "cytotoxicity call", "setting": "HepG2", "result": "inactive"},
      {"measurement": "growth inhibition call", "setting": "S. aureus RN4220", "result": "inactive"}
    ]},
    {"smiles": "C[C@@H]1CN([C@H](C)CO)C(=O)c2cc(NC(=O)Nc3cccc4ccccc34)ccc2O[C@H]1CN(C)C(=O)NC1CCCCC1", "values": [
      {"measurement": "cytotoxicity call", "setting": "HSkMC", "result": "active"},
      {"measurement": "cytotoxicity call", "setting": "HepG2", "result": "inactive"},
      {"measurement": "growth inhibition call", "setting": "S. aureus RN4220", "result": "inactive"}
    ]},
    {"smiles": "CC(C)NC(=O)Nc1ccc2c(c1)C(=O)N([C@H](C)CO)C[C@H](C)[C@H](CN(C)S(C)(=O)=O)OCCCC[C@@H](C)O2", "values": [
      {"measurement": "cytotoxicity call", "setting": "HSkMC", "result": "inactive"},
      {"measurement": "cytotoxicity call", "setting": "HepG2", "result": "inactive"},
      {"measurement": "growth inhibition call", "setting": "S. aureus RN4220", "result": "inactive"}
    ]},
    {"smiles": "COc1ccc2c3c([nH]c2c1)[C@H](CO)N(Cc1ccccc1)C[C@]13CCN(CC1)C(=O)Nc1cccc(c1)F", "values": [
      {"measurement": "cytotoxicity call", "setting": "HSkMC", "result": "inactive"},
      {"measurement": "cytotoxicity call", "setting": "HepG2", "result": "inactive"},
      {"measurement": "growth inhibition call", "setting": "S. aureus RN4220", "result": "inactive"}
    ]},
    {"smiles": "Cc1noc(C)c1NC(=O)Nc1ccc2c(c1)C(=O)N([C@@H](C)CO)C[C@H](C)[C@H](CN(C)Cc1ccc(C(=O)O)cc1)OCCCC[C@H](C)O2", "values": [
      {"measurement": "cytotoxicity call", "setting": "HSkMC", "result": "inactive"},
      {"measurement": "cytotoxicity call", "setting": "HepG2", "result": "inactive"},
      {"measurement": "growth inhibition call", "setting": "S. aureus RN4220", "result": "inactive"}
    ]},
    {"smiles": "Cc1ccc(S(=O)(=O)N2C[C@@H](O)COC[C@H]3O[C@H](CC(=O)NCc4ccccc4C(F)(F)F)CC[C@@H]32)cc1", "values": [
      {"measurement": "cytotoxicity call", "setting": "HSkMC", "result": "inactive"},
      {"measurement": "cytotoxicity call", "setting": "HepG2", "result": "inactive"},
      {"measurement": "growth inhibition call", "setting": "S. aureus RN4220", "result": "inactive"}
    ]},
    {"smiles": "O=C([C@H]1CCCO1)N1CCNCC1", "values": [
      {"measurement": "cytotoxicity call", "setting": "HSkMC", "result": "inactive"},
      {"measurement": "cytotoxicity call", "setting": "HepG2", "result": "inactive"},
      {"measurement": "growth inhibition call", "setting": "S. aureus RN4220", "result": "inactive"}
    ]},
    {"smiles": "C[C@@H]1CN([C@@H](C)CO)C(=O)c2cc(NS(=O)(=O)c3ccc(F)cc3)ccc2O[C@@H]1CN(C)Cc1ccc(-c2ccccc2)cc1", "values": [
      {"measurement": "cytotoxicity call", "setting": "HSkMC", "result": "active"},
      {"measurement": "cytotoxicity call", "setting": "HepG2", "result": "active"},
      {"measurement": "growth inhibition call", "setting": "S. aureus RN4220", "result": "inactive"}
    ]},
    {"smiles": "C[C@@H]1CN([C@H](C)CO)C(=O)c2cccc(NC(=O)Nc3ccc(F)cc3)c2O[C@@H]1CN(C)CC1CCCCC1", "values": [
      {"measurement": "cytotoxicity call", "setting": "HSkMC", "result": "inactive"},
      {"measurement": "cytotoxicity call", "setting": "HepG2", "result": "inactive"},
      {"measurement": "growth inhibition call", "setting": "S. aureus RN4220", "result": "inactive"}
    ]},
    {"smiles": "COCC#Cc1cnc2c(c1)C(=O)N([C@@H](C)CO)C[C@@H](C)[C@@H](CN(C)C(=O)Nc1ccccc1OC)O2", "values": [
      {"measurement": "cytotoxicity call", "setting": "HSkMC", "result": "inactive"},
      {"measurement": "cytotoxicity call", "setting": "HepG2", "result": "inactive"},
      {"measurement": "growth inhibition call", "setting": "S. aureus RN4220", "result": "inactive"}
    ]},
    {"smiles": "Cc1noc(C)c1NC(=O)Nc1ccc2c(c1)C(=O)N([C@H](C)CO)C[C@@H](C)[C@H](CN(C)Cc1ccc(Cl)c(Cl)c1)OCCCC[C@@H](C)O2", "values": [
      {"measurement": "cytotoxicity call", "setting": "HSkMC", "result": "inactive"},
      {"measurement": "cytotoxicity call", "setting": "HepG2", "result": "inactive"},
      {"measurement": "growth inhibition call", "setting": "S. aureus RN4220", "result": "inactive"}
    ]},
    {"smiles": "C[C@H](CO)N1C[C@H](C)[C@@H](CN(C)S(C)(=O)=O)Oc2ccc(NC(=O)Cn3cnnn3)cc2CC1=O", "values": [
      {"measurement": "cytotoxicity call", "setting": "HSkMC", "result": "inactive"},
      {"measurement": "cytotoxicity call", "setting": "HepG2", "result": "inactive"},
      {"measurement": "growth inhibition call", "setting": "S. aureus RN4220", "result": "inactive"}
    ]},
    {"smiles": "NCC(=O)Nc1ccc(F)c(F)c1F", "values": [
      {"measurement": "cytotoxicity call", "setting": "HSkMC", "result": "inactive"},
      {"measurement": "cytotoxicity call", "setting": "HepG2", "result": "inactive"},
      {"measurement": "growth inhibition call", "setting": "S. aureus RN4220", "result": "inactive"}
    ]},
    {"smiles": "O=C(NO)c1ccc(C(=O)N/N=C/[C@H](O)[C@@H](O)[C@H](O[C@@H]2O[C@H](CO)[C@H](O)[C@H](O)[C@H]2O)[C@H](O)CO)cc1", "values": [
      {"measurement": "cytotoxicity call", "setting": "HSkMC", "result": "inactive"},
      {"measurement": "cytotoxicity call", "setting": "HepG2", "result": "inactive"},
      {"measurement": "growth inhibition call", "setting": "S. aureus RN4220", "result": "inactive"}
    ]},
    {"smiles": "C[C@@H]1CCCCO[C@H](CN(C)C(=O)CCC(F)(F)F)[C@H](C)CN([C@H](C)CO)C(=O)c2cc(NS(=O)(=O)c3ccc(Cl)cc3)ccc2O1", "values": [
      {"measurement": "cytotoxicity call", "setting": "HSkMC", "result": "inactive"},
      {"measurement": "cytotoxicity call", "setting": "HepG2", "result": "inactive"},
      {"measurement": "growth inhibition call", "setting": "S. aureus RN4220", "result": "inactive"}
    ]},
    {"smiles": "COc1cccc(S(=O)(=O)N(C)C[C@@H]2Oc3ncc(C#CCN(C)C)cc3C(=O)N([C@@H](C)CO)C[C@H]2C)c1", "values": [
      {"measurement": "cytotoxicity call", "setting": "HSkMC", "result": "inactive"},
      {"measurement": "cytotoxicity call", "setting": "HepG2", "result": "inactive"},
      {"measurement": "growth inhibition call", "setting": "S. aureus RN4220", "result": "inactive"}
    ]},
    {"smiles": "CCOc1nc2cccc(C(=O)OC(C)OC(=O)OC3CCCCC3)c2n1Cc1ccc(-c2ccccc2-c2nnn[nH]2)cc1", "note": "(stereo not given)", "values": [
      {"measurement": "cytotoxicity call", "setting": "HSkMC", "result": "inactive"},
      {"measurement": "cytotoxicity call", "setting": "HepG2", "result": "inactive"},
      {"measurement": "growth inhibition call", "setting": "S. aureus RN4220", "result": "inactive"}
    ]},
    {"smiles": "CC(C)NC(=O)N(C)C[C@H]1Oc2ncc(-c3ccc(C(=O)N(C)C)cc3)cc2C(=O)N([C@H](C)CO)C[C@@H]1C", "values": [
      {"measurement": "cytotoxicity call", "setting": "HSkMC (human skeletal muscle cells)", "result": "inactive"},
      {"measurement": "cytotoxicity call", "setting": "HepG2", "result": "inactive"},
      {"measurement": "growth inhibition call", "setting": "S. aureus RN4220", "result": "inactive"}
    ]}
  ]
}
